The supplement of paper PMC10126150
Sequences with one replicate were seen in a single cluster, so their values are uncertain.

System: ATP
Test: switch fluorescence ratio, 500 uM ATP over buffer (Cy3 cluster intensity, sum of 5 cycles each) (fold (ratio)); higher = stronger signal-on switching upon ATP binding; sequences stand for … in TCGTCGGCAGCGTCAGATGTGTATAAGAGACAGTTTTTTTTTTTTTTTTTTTTTTTTT…TC
Details: aptamer strand: ATP DNA aptamer (quencher-CACCTGGGGGAGTATTGCGGAGGAAGG + anchor), 100 nM annealed; ATP concentration: 500 uM; one replicate
Summary of the method: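 Values give the fluorescence ratio for each switch-domain sequence, averaged from per-cluster ratios of summed target-cycle to summed buffer-cycle Cy3 intensity. The Cy3-labelled switching-strand clusters sat on a modified Illumina MiSeq flow-cell, were annealed to 100 nM quencher-labelled ATP aptamer, and were imaged in selection buffer, then after 15 min with 500 uM ATP at 22 °C. Five cycles ran with NaOH stripping and re-annealing between them, and clusters outside 100-1000 RFU were excluded.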
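Note: ATP exposure 15 min at 22 °C before imaging.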

Sequence	switch fluorescence ratio
AGTGGGGGCC	0.975
ATGCTTACGG	1.05
GAGAGCTAC	1.13
AGGCAGTATG	1.08
GGGTTTAACG	0.958
CCGAACCATT	1.35
TGTGCGTATT	1.01
GCGCTTGGTG	1.03
CCAAGTATGC	1.01
TAGAAGCAT	1.02
GTCCCTGCGA	1.22
AGGTAGTGCA	1.01
TCCGGTTT	0.972
ATCATTGAT	0.985
AAAAAGGCTC	1.03
TTGGAATAGG	0.991
ATGTTATCTG	0.929
CGAGTACAAG	0.982
ACGATGGGAT	1.01
TCCAATGTTC	1.36
AGTACCAAGT	1
AAGGTTCGTC	1.02
ATTACAGAG	1.02

Sequence	switch fluorescence ratio
GCGATTTCTG	1.03
GAGGCGGTGC	1.42
TCTTCGACTA	1.05
GGGCGTGATA	1.05
CGCACTGCTA	1.19
GTGAGTAGCC	0.999
CAGGTGCTAT	2.17
TCAAAAGTTC	1
ATATACACTC	1.05
CACGGATACC	1.23
TTTCTTGTAC	1.31
CACCGGGTAG	1.18
TGTGCGTCG	0.994
TGCATAATAA	1.01
ACAAAAGTCG	1.01
CTGGAACCGG	1.02
GGCGG	1
CTCGCTAGTT	0.977
TGAGAATTAT	0.988
AGCCCACCCC	1.2
GTGTCCTCGA	1.02
TAGGGCGCTA	1.01
TTCGGCATGG	1.04

Sequence	switch fluorescence ratio
TAGGTGCACC	0.963
CCCAGGAGAT	1.44
AGTTGGTCCA	1.01
GACACCGGGG	0.891
CGCATTGCTA	1.62
CTGTTGAGAT	0.969
TAGAAAGTC	0.987
TTGCCTAGGT	1.04
AAGGGTGTG	1.05
TAGTAGCCGT	0.981
GCAAGTACGC	1.58
GCGTCTAGAC	1.05
GAGTTCTTCC	1.28
TAGAAGACCG	1.03
CCAAGAGTAC	0.992
TTATAGCGG	1.08
TGGGTTTCGT	1.02
GGAATTATTA	1
TTGCGAGATG	0.987
GTTTTAT	1.02
TCTAAACCAT	1.01
TACTATTCGG	1.02
AGGCAAAG	1.21

Sequence	switch fluorescence ratio
CAGTTCAGGT	1.01
CGGGACAGAT	0.986
GGAGGATAGT	1.03
CTGAAGGTTA	0.975
TCACGAAAAG	0.996
TAATTCGAAT	0.982
GCTGTAATCG	0.989
GCACTACTCA	2.6
TGGTGGTTG	0.999
TTGCCATTTG	0.989
GTTTTATGTT	0.981
GCATCTGTGG	1.02
GCACCGCCGT	1.1
CAACTTTGT	0.974
GAGTTGAAGA	0.999
CTCTCGCTC	2.58
AACCTACGGT	1.07
GCGTCCAGC	0.951
AATGTAATTT	1.02
CTTGGCTTTG	0.997
TGATTTGCGC	0.943
CGTGGTTGTG	0.999
CGAACGTAGG	1.01

Sequence	switch fluorescence ratio
GAAGGGAAAA	0.993
AAGATGCGGC	1.01
AAAGGTCAGA	1.02
GATTGGATTC	1
ACCGGGTGGT	1.11
CGGTTTGGTC	1.01
TTTCCACAGT	2.12
GAATAGTAGG	0.966
TATTACAGCT	1.02
ACTCCCTGGA	1.36
TTAACGAGCC	1.08
ACATAGCCGT	1
GGGTTTAA	0.996
CGTGGGATGG	1.01
AATCGCGAGG	1.02
TAGTGAGTGG	0.958
AGGTTACTGG	1
CCAGACGATG	0.972
CACCATTAAA	1.03
AAGGGCGAGT	1.04
ACTCTGCCAC	4.87
GATCGAGTAT	1.01
GTTATGCTT	1.01

Sequence	switch fluorescence ratio
GCGATGTCCC	1.3
CCCCTTCTGG	1.01
TATTAGGACA	1.01
CCAGGAAGTT	0.984
CCGGGGGAGT	1.01
TTCCTTATCT	1
GGAGAAA	0.989
TTAATTGCGT	1.01
GCAGCCACCA	1.05
GTGATATTTT	0.973
GTATTCTTGG	0.965
GAAAAAGCTT	1.01
AAGAAGGACT	1.62
ACTTATAGC	1.01
TTCGACACCT	1.33
GCACGTAGCA	1.05
CGTTTCTCGG	0.968
CTATTACTGG	1
CACTTACTCT	1.2
TTTCAGATGT	0.975
ACCAACACAA	1.25
CCGGATCCTT	1.03
GCTAGCGCAT	1.08

Sequence	switch fluorescence ratio
TTGATCAAGA	1.02
ATATTTGGGA	0.988
CAGGAGGGAT	1
CCAAGCAGGT	1.46
AGCATGCGCC	1.08
GGTTAAGGCT	1.02
GGGTCGCATA	1.04
TTTGAAGTTA	1.03
AGTTACGGCG	1.03
TCCGGTGGAT	1.03
ATCCAATCCT	1.09
TGCGGTATT	1.01
CTGGGAACTA	0.966
CGTGTTCGTC	1.07
TTCAGAACGA	1.02
CGGGATGTAA	1
GGAGTTCGAA	1.02
TTCACAGGTA	1.05
CGCGCTATGA	1.04
CTATCGGAGA	1.01
